Measurements published in the supplement of paper PMC4967469.

Experiments:
Test in all cases: Viability of human cancer cell lines after 72 h of drug (GDSC screen)
[1] = compound: Cc1ccc(NC(=O)c2cccc(C(C)(C)C#N)c2)cc1Nc1ccc2ncn(C)c(=O)c2c1 [AZ628]; settings: top dose 4 µM; top dose inferred
Description: (§1)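 Human cancer cell lines in 384-well plates, medium with 10% serum, drug for 72 h over a 256-fold dose range (nine 2-fold or five 4-fold steps up to the top dose). Adherent lines were fixed and stained with the nucleic acid dye Syto60, suspension lines read with resazurin; signal relative to control wells, capped at 0 and 100%. One two-parameter sigmoid per drug and line, fitted in a mixed model over all curves with the slope shared within a line.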

[2] = compound: N#CC(c1ccnc(NCCc2cccnc2)n1)c1nc2ccccc2s1 [AS601245]; settings: top dose 8 µM; top dose inferred
Description: as §1

[3] = compound: NC(=O)C1CCCc2c1[nH]c1ccc(Cl)cc21 [EX-527]; settings: top dose 20 µM
Description: as §1

[4] = compound: Nc1ccc(C(=O)Nc2cccc(-c3nc(N4CCOCC4)c4oc5ncccc5c4n3)c2)cn1 [YM201636]; settings: top dose 5.12 µM; top dose inferred
Description: as §1

[5] = compound: Cn1cnc2c(F)c(Nc3ccc(Br)cc3Cl)c(C(=O)NOCCO)cc21 [AZD6244]
Description: as §1

[6] = compound: CC(=O)c1c(C)c2cnc(Nc3ccc(N4CCNCC4)cn3)nc2n(C2CCCC2)c1=O [PD-0332991]
Description: as §1

[7] = compound: COc1cc2c(Nc3ccc(NC(=O)c4ccccc4)cc3)ncnc2cc1OCCCN1CCOCC1 [ZM-447439]; settings: top dose inferred
Description: as §1

[8] = top dose 4 µM, screen: GDSC drug entry 1498, top dose inferred

| Cell Line | AUC [1] | IC50 [1] [µM] | AUC [2] | IC50 [2] [µM] | AUC [3] | IC50 [3] [µM] | AUC [4] | IC50 [4] [µM] | AUC [5, 8] | IC50 [5, 8] [µM] | AUC [6] | IC50 [6] [µM] | AUC [7] | IC50 [7] [µM] | AUC ([5]; screen: GDSC drug entry 1062) | IC50 ([5]; screen: GDSC drug entry 1062) [µM] |
| --- | --- | --- | --- | --- | --- | --- | --- | --- | --- | --- | --- | --- | --- | --- | --- | --- |
| LU-65 (large cell lung carcinoma, suspension) | 0.902 | > 4 | 0.941 | > 8 | 0.987 | > 20 | 0.859 | > 5.12 | – | – | – | – | – | – | – | – |
| MHH-NB-11 (neuroblastoma, adherent) | 0.934 | > 4 | 0.954 | > 8 | 0.985 | > 20 | 0.9 | > 5.12 | – | – | – | – | – | – | – | – |
| MOLT-13 (T-cell lymphoblastic leukaemia, suspension) | 0.865 | 2.86 | – | – | 0.983 | > 20 | 0.836 | 2.83 | 0.604 | 0.464 | – | – | – | – | – | – |
| NB17 (neuroblastoma, adherent) | 0.982 | > 4 | – | – | 0.926 | > 20 | 0.854 | 5.03 | 0.981 | > 4 | – | – | – | – | – | – |
| NCI-H128 (small cell lung carcinoma, suspension) | 0.829 | > 4 | – | – | – | – | – | – | – | – | – | – | – | – | – | – |
| NK-92MI (lymphoid neoplasm, suspension) | 0.881 | 3.68 | 0.83 | 4.56 | – | – | – | – | – | – | – | – | – | – | – | – |
| RL95-2 (endometrium, adherent) | 0.826 | 2.38 | – | – | 0.981 | > 20 | 0.886 | > 5.12 | 0.623 | 0.544 | – | – | – | – | – | – |
| SKM-1 (haematopoietic neoplasm, suspension) | 0.922 | > 4 | – | – | – | – | – | – | 0.169 | 0.0215 | – | – | – | – | – | – |
| TE-441-T (rhabdomyosarcoma, adherent) | 0.82 | 2.17 | 0.893 | > 8 | – | – | 0.911 | > 5.12 | – | – | – | – | – | – | – | – |
| VM-CUB-1 (bladder, adherent, top dose 2 µM) | – | – | – | – | – | – | – | – | – | – | 0.899 | > 2 | 0.885 | > 2 | 0.867 | 1.69 |
| VMRC-LCD (lung adenocarcinoma, adherent, top dose 4 µM) | – | – | – | – | – | – | – | – | – | – | 0.951 | > 4 | 0.897 | 3.52 | 0.993 | > 4 |
| VMRC-RCZ (kidney, adherent, top dose 4 µM) | – | – | – | – | – | – | – | – | – | – | 0.745 | 1.44 | 0.982 | > 4 | 0.928 | > 4 |
| WIL2-NS (lymphoid neoplasm, suspension, top dose 4 µM) | – | – | – | – | – | – | – | – | – | – | 0.99 | > 4 | 0.992 | > 4 | 0.987 | > 4 |
| WM35 (melanoma, adherent, top dose 4 µM) | – | – | – | – | – | – | – | – | – | – | 0.79 | 1.8 | 0.851 | 3.11 | 0.583 | 0.423 |
| WM793B (melanoma, adherent, top dose 4 µM) | – | – | – | – | – | – | – | – | – | – | 0.926 | > 4 | 0.884 | > 4 | 0.851 | 3.58 |
| WM1552C (melanoma, adherent, top dose 4 µM) | – | – | – | – | – | – | – | – | – | – | 0.981 | > 4 | 0.95 | > 4 | 0.91 | > 4 |
| WM-115 (melanoma, adherent, top dose 4 µM) | – | – | – | – | – | – | – | – | – | – | 0.916 | > 4 | 0.953 | > 4 | 0.515 | 0.277 |
| WSU-DLCL2 (B-cell lymphoma, suspension, top dose 4 µM) | – | – | – | – | – | – | – | – | – | – | 0.958 | > 4 | 0.959 | > 4 | 0.987 | > 4 |
| WSU-NHL (lymphoid neoplasm, suspension, top dose 4 µM) | – | – | – | – | – | – | – | – | – | – | 0.797 | 1.63 | 0.806 | 1.75 | 0.982 | > 4 |
| YAPC (pancreas, adherent, top dose 4 µM) | – | – | – | – | – | – | – | – | – | – | 0.912 | > 4 | 0.943 | > 4 | 0.954 | > 4 |
| YH-13 (glioma, adherent, top dose 4 µM) | – | – | – | – | – | – | – | – | – | – | 0.692 | 0.895 | 0.884 | > 4 | 0.967 | > 4 |
| YKG-1 (glioma, adherent, top dose 4 µM) | – | – | – | – | – | – | – | – | – | – | 0.747 | 1.3 | 0.858 | 3.36 | 0.862 | 3.51 |
| YT (lymphoid neoplasm, suspension, top dose 4 µM) | – | – | – | – | – | – | – | – | – | – | 0.901 | 3.8 | 0.885 | 3.24 | 0.968 | > 4 |
| ZR-75-30 (breast, adherent, top dose 4 µM) | – | – | – | – | – | – | – | – | – | – | 0.983 | > 4 | 0.983 | > 4 | 0.983 | > 4 |
| huH-1 (liver, adherent, top dose 4 µM) | – | – | – | – | – | – | – | – | – | – | 0.692 | 0.991 | 0.92 | > 4 | 0.943 | > 4 |
| no-11 (glioma, adherent, top dose 4 µM) | – | – | – | – | – | – | – | – | – | – | 0.973 | > 4 | 0.914 | > 4 | 0.945 | > 4 |

A lower IC50 marks a more sensitive line; fits outside the tested doses are given as limits. For AUC the same curve is integrated over the 256-fold range of doses and scaled to a fraction: 1 means no effect, lower means more sensitive. For some assays here: Where the top dose is marked as inferred, it was derived from the fitted curves, not read from the paper. For some assays here: Where an entry number is given, a second screen of the drug exists; the two often differ.
